In PubChem BioAssay AID485294 (National Center for Advancing Translational Sciences (NCATS), 2010):
Hit rate of the full screen: of about 370,000 compounds, about 150 (0.041%) were called active. The inconclusive results got no clear call from the source; some entries with a clear call stand among them for comparison. Calls follow the shape of the dose curve; as a rule, active = well fitted inhibition curve with a large enough effect; inconclusive = small, poorly fitted or top-dose-only effect; inactive = flat fitted curve, though single readings scatter. Potencies of inconclusive entries are left out as doubtful fits.

Molecular target: Beta-lactamase (Escherichia coli (strain K12)) (UniProt P00811)
Experiment: qHTS Inhibitors of AmpC Beta-Lactamase (assay with detergent); also: nearly all actives have a fitted effect of over 25% in size
Details: AmpC hydrolysis of nitrocefin, absorbance 480 nm, 0.01% Triton; series mostly up to 114 µM
How it was run: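 20 mM phosphate pH 7.0 + 0.01% (detergent screen) or 0.0001% Triton X-100; 5.3 nM AmpC reagent; cpd preinc 15 min RT; nitrocefin (800 uM stock) to start; A480 q20 s × 4 min; Activity was normalised to no-enzyme and no-compound control wells.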
Potency is read from the fitted curve at half-maximal effect; tags tell the direction and shape of the fitted curve.

Chain of UniProt P00811 (P00811 whole entry, looked up): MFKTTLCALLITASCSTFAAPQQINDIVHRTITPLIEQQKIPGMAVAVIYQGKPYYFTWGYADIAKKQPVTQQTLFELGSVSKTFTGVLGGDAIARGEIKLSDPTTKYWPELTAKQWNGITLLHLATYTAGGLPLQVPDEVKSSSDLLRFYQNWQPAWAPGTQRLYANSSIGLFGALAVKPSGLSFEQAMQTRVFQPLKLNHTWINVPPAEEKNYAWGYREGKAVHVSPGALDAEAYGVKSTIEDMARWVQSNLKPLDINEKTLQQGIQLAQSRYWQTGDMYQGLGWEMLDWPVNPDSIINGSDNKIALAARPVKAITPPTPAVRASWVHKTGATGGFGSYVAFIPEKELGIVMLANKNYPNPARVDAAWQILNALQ

| Compound | Potency |
| --- | --- |
| O=C(CN1C(=O)CSc2ncccc21)N1CCOCC1 | inconclusive [inhibitor, full curve, poor fit] |
| O=C(Nc1ccon1)C1CCN(S(=O)(=O)c2cccs2)CC1 | inconclusive [inhibitor, full curve, poor fit] |
| O=C(CCCCn1c(=O)c2ccccc2n(CC(=O)Nc2cccc(F)c2)c1=O)NCCc1ccccc1 | inactive |
| O=C(O)c1ccc(/C=C/c2nc3ccccc3c(=O)[nH]2)cc1 | inactive |
| CCCn1c(SCC(=O)NCc2ccco2)nnc1-c1ccncc1 | inactive |
| Cc1ccc(OCCNS(=O)(=O)c2ccc(N3CCCC3=O)cc2)cc1 | inconclusive [inhibitor, partial curve] |
| COc1ccccc1-c1cc(C(F)(F)F)nc(N2CCCC2)n1 | inactive |
| CCCCn1c(O)c(C(C)=NCc2ccc(F)cc2)c(=O)[nH]c1=O | inconclusive [inhibitor, full curve, poor fit] |
| COc1cccc(NC(=O)c2cc3ccccc3oc2=O)c1 | inconclusive [inhibitor, partial curve, poor fit] |
| COc1cc(C(=O)/C=C/c2cccnc2)c([N+](=O)[O-])cc1OC | inactive |
| CCOc1ccc(-c2cc(N)n(S(=O)(=O)c3ccc(OC)cc3)n2)cc1 | inconclusive [inhibitor, full curve, poor fit] |
| Cc1ccccc1C(=O)OC1OC(=O)C(Cl)=C1Nc1ccc(C(=O)O)cc1 (stereo not drawn) | active: 1.26 µM |
| COc1ccc(-n2cc(C(=O)c3ccc4ccccc4c3O)cn2)cc1 | inactive |
| O=C1c2ccccc2C(=O)N1CCSc1ncn[nH]1 | inactive |
| CCOC(=O)c1cnc(-n2nc(C)cc2C)nc1Nc1ccccc1OC | inconclusive [inhibitor, partial curve, poor fit] |
| COc1ccccc1NS(=O)(=O)c1cc(NC(=O)c2cc3ccccc3oc2=O)ccc1C | inactive |
| O=C(c1ccncc1)N1CCN(S(=O)(=O)c2cc(C(F)(F)F)cc(C(F)(F)F)c2)CC1 | inconclusive [inhibitor, single point] |
| Cc1ccccc1NC(=O)c1cnc2sc(N3CCCC3)nn2c1=O | inactive |
| CCOc1ccc(S(=O)(=O)N2CCC(C(=O)NCCc3ccccc3)CC2)cc1 | inconclusive [inhibitor, single point] |
| COc1ccc(OCC(=O)NC2CC(C)(C)NC(C)(C)C2)cc1 | inconclusive [inhibitor, full curve, poor fit] |
| Cc1cc(N2CCN(c3ccc(C(F)(F)F)cc3[N+](=O)[O-])CC2)c2ccccc2n1 | inactive |
| COc1cccc(NC(=O)CN2CC(c3ccccc3)CC2=O)c1 (stereo not drawn) | inactive |
| COc1ccc2ncc(OC(C)=O)cc2c1 | inactive |

| Compound | Potency |
| --- | --- |
| COc1ccc(/C=C2/CCc3ccccc3C2=O)cc1OC | inconclusive [inhibitor, full curve, poor fit] |
| Cc1cccc(OCCC(=O)Nc2c(C)n(C)n(-c3ccccc3)c2=O)c1 | inconclusive [inhibitor, full curve, poor fit] |
| Cc1ccccc1-n1c(O)c(/C=N/Nc2nc3c(c(=O)n(C)c(=O)n3C)n2C)c(=O)[nH]c1=S | inconclusive [inhibitor, full curve, poor fit] |
| CCN1CCN(Cc2nc3c(c(=O)[nH]c(=O)n3C)n2Cc2ccccc2Cl)CC1 | inconclusive [inhibitor, full curve, poor fit] |
| CCOC(=O)C1=C(COC(=O)c2cccc(N(C)C)c2)NC(=O)NC1C (stereo not drawn) | inconclusive [inhibitor, full curve, poor fit] |
| CC(Sc1nc2c(cc1C#N)CCCCC2)C(=O)O (stereo not drawn) | inconclusive [inhibitor, full curve, poor fit] |
| Cc1cccc(N=C2NC(=O)C(CO)(CO)S2)c1 | inconclusive [inhibitor, full curve, poor fit] |
| CCOC(=O)c1nn(-c2ccccc2Cl)c(=O)cc1OCC(=O)Nc1cccc(OC)c1 | inconclusive [inhibitor, full curve] |
| CCOc1cc(CNC(=O)c2ccc3nc(CCc4ccccc4)oc3c2)ccc1OC | inactive |
| Cc1ccc(C(=O)N(C)CC(=O)Nc2cccc(F)c2)cc1S(=O)(=O)N1CCCCC1 | inconclusive [inhibitor, full curve, poor fit] |
| CCc1ccc2nc(N3C(=O)C(O)=C(C(=O)c4ccco4)C3c3cccs3)sc2c1 (stereo not drawn) | inconclusive [inhibitor, full curve, poor fit] |
| O=C(CSc1nc2nn(-c3ccccc3)c(=O)c-2c2n1CCCCC2)NCCCc1ccccc1 | inconclusive [inhibitor, single point] |
| Cn1cccc1Cc1nnc(SCC(=O)Nc2ccccc2F)n1-c1ccc(F)cc1 | inconclusive [inhibitor, full curve, poor fit] |
| O=C(CNC(=O)c1cccs1)NC1=NCCS1 | inactive |
| Cc1ccc(NCC(=O)Nc2cccc(F)c2)cc1S(=O)(=O)N1CCCCCC1 | inactive |
| O=C1N(CCCCN2C(=O)C3(OCCO3)c3ccccc32)c2ccccc2C12OCCO2 | inconclusive [inhibitor, full curve] |
| COc1ccc(OCCCON2C(=O)c3ccccc3C2=O)cc1 | inconclusive [inhibitor, single point] |
| Cc1ccc(C)c(N2CCN(c3nc4c(S(=O)(=O)c5ccccc5)nnn4c4ccc(Cl)cc34)CC2)c1 | inactive |
| O=C(c1ccc(Br)cc1)N1CCN(S(=O)(=O)c2ccccc2)CC1 | inconclusive [inhibitor, full curve] |
| CCCN1CCC[C@H](c2cccc(O)c2)C1 | inconclusive [inhibitor, full curve] |
| Cc1ccc(S(=O)(=O)N(CC(=O)c2ccc(Cl)cc2)C(=O)N2CCN(C)CC2)cc1 | inconclusive [inhibitor, full curve, poor fit] |
| CCNC(=O)CC1C(=O)N(c2ccc(F)cc2)C(=O)N1Cc1ccccn1 (stereo not drawn) | inconclusive [inhibitor, full curve, poor fit] |
| O=C(COc1ccccc1F)Nc1nnc(C2CCCC2)s1 | inconclusive [inhibitor, partial curve, poor fit] |

| Compound | Potency |
| --- | --- |
| CCc1ccccc1NC(=O)CSc1nnc([C@@H](NC(=O)OC(C)(C)C)C(C)CC)o1 (stereo partly drawn) | inconclusive [inhibitor, full curve] |
| O=C1NC(=O)N(c2ccc3c(c2)OCO3)C(=O)/C1=C/c1ccc(N2CCCC2)o1 | inconclusive [inhibitor, full curve] |
| COc1ccc(NC(=O)Cc2noc3ccc(C)cc23)cc1Cl | inactive |
| O=c1[nH]c2ccc(Cl)cc2c(O)c1-c1ccccc1 | inconclusive [inhibitor, full curve] |
| Cc1ccc(S(=O)(=O)Nc2cccc(NC(=O)CN3CCCCC3)c2)cc1 | inconclusive [inhibitor, partial curve] |
| COc1ccccc1OC(C)C(=O)Nc1nc(-c2ccc(S(=O)(=O)N3CCOCC3)cc2)cs1 (stereo not drawn) | inconclusive [inhibitor, single point] |
| O=C(Nc1nccs1)C(Cl)(Cl)Cl | inactive |
| CC1(c2ccc(OC(F)F)cc2)NC(=O)N(CC(=O)Nc2ccc3c(c2)OCO3)C1=O (stereo not drawn) | inconclusive [inhibitor, full curve] |
| O=C(Cc1ccccc1)NCC(=O)N/N=C/c1ccc([N+](=O)[O-])s1 | inconclusive [inhibitor, full curve, poor fit] |
| CC(=O)N1CCN(C(=O)COC(=O)CNC(=O)c2ccc(C)cc2)CC1 | inconclusive [inhibitor, full curve, poor fit] |
| CCOc1ccccc1O[C@H](c1ccccc1)[C@H]1CNCCO1 | inconclusive [inhibitor, single point] |
| CCc1ccccc1N(CC(=O)N1CCN(c2ccccc2)CC1)S(C)(=O)=O | inconclusive [inhibitor, full curve, poor fit] |
| Cc1cc(Nc2ccc(F)cc2)nc(-n2nc(C)cc2C)n1 | inactive |
| COc1ccccc1OCc1nc(Cc2ccc(Cl)cc2)no1 | inconclusive [inhibitor, single point] |
| COC(=O)C1=CN(C2CC2)C=C(C(=O)OC)C1c1ccc(C(=O)OC)cc1 | inactive |
| COc1cccc(-c2sc3ccc(OC)cc3c2-c2ccc(C(N)=O)cc2)c1 | inactive |
| O=C(OC1CCCCC1=O)c1cc(=O)c2ccccc2o1 (stereo not drawn) | inconclusive [inhibitor, partial curve, poor fit] |
| Cc1c(NC(=O)c2ccc(-c3cccc([N+](=O)[O-])c3)o2)c(=O)n(-c2ccccc2)n1C | inactive |
| O=C(OCCCC(=O)N1CCOCC1)c1ccccc1 | inconclusive [inhibitor, full curve, poor fit] |
| CCN(CC)S(=O)(=O)c1ccc2c(c1)c(=O)c(C(=O)NCCCN(C)c1ccccc1)cn2C | inconclusive [inhibitor, full curve, poor fit] |
| CSc1ccccc1C(=O)Nc1cccc([N+](=O)[O-])c1C | inconclusive [inhibitor, single point] |
| O=C(NCc1ccc2c(c1)OCO2)C1CCCN1C(=O)Nc1ccc(F)cc1 (stereo not drawn) | inconclusive [inhibitor, partial curve, poor fit] |
